According to PubChem BioAssay AID686978 (National Center for Advancing Translational Sciences (NCATS), 2013):
Screen size: about 420,000 compounds; about 64,000 (15%) were called active. Inconclusive results, whose numbers are uncertain, are shown with a selection of clear calls. Calls come from the whole dose curve; as a rule, active = well fitted inhibition curve with a large enough effect; inconclusive = small, poorly fitted or top-dose-only effect; inactive = flat fitted curve, though single readings scatter. Potencies of inconclusive entries are left out as doubtful fits.

Assay: qHTS for Inhibitors of human tyrosyl-DNA phosphodiesterase 1 (TDP1): qHTS in cells in absence of CPT; note: nearly all actives have a fitted effect of over 55% in size
Settings: DT40 Tdp1-/- hTDP1 cells, no CPT, ATP luminescence, 48 h; activity change, negative = growth inhibition: at 46.2 µM (top of the series) unless noted
Method in brief: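 Cells were dispensed at 400 per well, compounds added by pin tool, plates incubated ≥48 hr at 37 °C, then CellTiter-Glo added for 30 min at room temperature before luminescence reading. Line: DT40 Tdp1-/- complemented with hTDP1; camptothecin omitted.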
% is set by controls: 0 for no effect and ±100 for the full control effect; potency is the fitted concentration of half-maximal effect; tags give direction and shape of the fitted curve.

**Q.** For `CC1(C)OC(=O)C2=C(CC(c3ccccc3)OC2CCc2ccccc2)O1` (configuration not stated), which Potency is on record?
**A.** active: 23.1 µM

**Q.** Which Potency does the source give for `CCN(CCNC(=O)C1CCN(S(=O)(=O)c2c(C)noc2C)CC1)c1ccccc1` here?
**A.** active: 23.1 µM

**Q.** With `COC(=O)c1ccc(SCC(=O)N2CCC(C)CC2)c([N+](=O)[O-])c1` as the molecule, how does the Potency read?
**A.** inconclusive [inhibitor, partial curve, poor fit]

**Q.** Which Potency does the source give for `COc1ccccc1OCC(=O)NNC(=O)c1cnccn1` here?
**A.** inconclusive [inhibitor, single point]

**Q.** With `O=C(Nc1ccc(Cl)cn1)c1ccc(-c2cc(Cl)ccc2Cl)o1` as the molecule, how does the “activity change, negative = growth inhibition” value read?
**A.** inactive: -28.9%

**Q.** With `O=C(NN1C(=O)NC2(CCCCC2)C1=O)c1ccc(Cl)c(Cl)c1` as the molecule, how does the “activity change, negative = growth inhibition” value read?
**A.** inactive: 10.4%

**Q.** Which Potency does the source give for `Cc1ccccc1OCCCCc1c(C)n[nH]c1C` here?
**A.** active: 18.4 µM

**Q.** With `O=C(Oc1ccc2c(c1)OCC2=O)c1ccc(Cl)cc1` as the molecule, how does the “activity change, negative = growth inhibition” value read?
**A.** inactive: -9.76%

**Q.** Which “activity change, negative = growth inhibition” value does the source give for `CN(CCOc1ccccc1)C(=S)Nc1ccc(OC(F)F)cc1` here?
**A.** inactive: -25.7%

**Q.** With `Cc1ccc(C(=O)COC(=O)CN2C(=O)C3C4CCC(C4)C3C2=O)cc1[N+](=O)[O-]` (configuration not stated) as the molecule, how does the Potency read?
**A.** inconclusive [inhibitor, partial curve]

**Q.** With `O=C(NCc1ccccc1)c1ccc(S(=O)(=O)N2CCCCCC2)cc1` as the molecule, how does the Potency read?
**A.** inconclusive [inhibitor, single point]

**Q.** With `CC(C)C(c1nnnn1C1CCCCC1)N1CCCc2ccccc21` (configuration not stated) as the molecule, how does the Potency read?
**A.** inconclusive [inhibitor, single point]

**Q.** With `CCN(CC)C(=O)CN1C(=O)/C(=C/c2ccccc2)SC1=S` as the molecule, how does the Potency read?
**A.** active: 14.6 µM

**Q.** For `Cn1nc(C(F)(F)F)c(/C=N/OC(=O)c2ccccc2)c1SCc1ccc(Cl)cc1`, which Potency is on record?
**A.** inconclusive [inhibitor, single point]

**Q.** With `CCCCCCC(=O)NNC(=O)c1c(O)c2ccccc2n(CC)c1=O` as the molecule, how does the Potency read?
**A.** inconclusive [inhibitor, single point]

**Q.** Which “activity change, negative = growth inhibition” value does the source give for `CCOC(=O)c1ccccc1NC(=O)C1CSC2(C)CCC(=O)N12` (configuration not stated) here?
**A.** inactive: -23.8%

**Q.** Which Potency does the source give for `Cc1ccc(N(C)C(=O)c2cc(S(=O)(=O)N3CCc4ccccc43)cn2C)cc1` here?
**A.** inconclusive [inhibitor, single point]

**Q.** With `CCCn1c(SCC(=O)N(C)C2CCCCC2)n[nH]c1=O` as the molecule, how does the “activity change, negative = growth inhibition” value read?
**A.** inactive: 4.83%

**Q.** For `O=C(Cc1ccc(S(=O)(=O)N2CCOCC2)s1)Nc1ccccc1Br`, which “activity change, negative = growth inhibition” value is on record?
**A.** inactive: -5.25%

**Q.** For `Cc1ccnc(NC(=O)c2cc3c(=O)oc4ccc(C)cc4c3s2)c1`, which Potency is on record?
**A.** inconclusive [inhibitor, partial curve]

**Q.** For `COc1ccc(S(=O)(=O)N2CCCCC2)cc1NC(=O)Cc1sc(C)nc1-c1ccc(F)cc1`, which Potency is on record?
**A.** inconclusive [inhibitor, partial curve]

**Q.** For `COc1cccc(N2CCN(S(=O)(=O)c3cccc4cccnc34)CC2)c1`, which Potency is on record?
**A.** inconclusive [inhibitor, single point]

**Q.** Which “activity change, negative = growth inhibition” value does the source give for `Cc1cccc(N=C(N2CCOCC2)P(=O)(N2CCOCC2)N2CCOCC2)c1` here?
**A.** inactive: -9.86%

**Q.** With `S=C(NCC1CCCO1)N1CCN(c2nc(-c3ccccc3)cs2)CC1` (configuration not stated) as the molecule, how does the Potency read?
**A.** inconclusive [inhibitor, single point]

**Q.** For `Cc1cccc(NC(=O)c2ccc(NCCO)c([N+](=O)[O-])c2)n1`, which Potency is on record?
**A.** inconclusive [inhibitor, partial curve, poor fit]

**Q.** With `O=C(Cc1ccc(OCCCCc2ccccc2)cc1)NO` as the molecule, how does the Potency read?
**A.** inconclusive [inhibitor, single point]

**Q.** With `Cc1cccc(C)c1NC(=O)CSc1nc(-c2ccco2)cc(C(F)(F)F)n1` as the molecule, how does the Potency read?
**A.** inconclusive [inhibitor, single point]

**Q.** With `CCNc1nc(N2CCCN(C)CC2)nc2cc(OC)c(OC)cc12` as the molecule, how does the Potency read?
**A.** active: 11.2 µM

**Q.** For `O=C(O)c1cc(O)ccc1-c1ccc(O)cc1`, which “activity change, negative = growth inhibition” value is on record?
**A.** inactive: -0.278%

**Q.** With `COc1cccc(C=NC=Nc2cccc(OC)c2)c1` as the molecule, how does the “activity change, negative = growth inhibition” value read?
**A.** inactive: -21.7%

**Q.** With `COc1ccc2cc3cc(C(=O)NCc4ccccc4OC)oc3nc2c1` as the molecule, how does the Potency read?
**A.** inconclusive [inhibitor, single point]

**Q.** Which Potency does the source give for `O=C(CN1C(=O)NC2(CCCc3ccccc32)C1=O)Nc1cc(F)ccc1F` (configuration not stated) here?
**A.** inconclusive [inhibitor, single point]

**Q.** With `CC(=O)c1ccc(S(=O)(=O)NCC(=O)Nc2nc3ccccc3[nH]2)cc1` as the molecule, how does the “activity change, negative = growth inhibition” value read?
**A.** inactive: -18.8%

**Q.** Which “activity change, negative = growth inhibition” value does the source give for `O=C(NCCc1nc2ccccc2n1CCOc1ccccc1)C1CCCCC1` here?
**A.** inactive: -16.3%

**Q.** Which Potency does the source give for `CC1(C)CC(=O)c2cc(C(=O)Nc3ccccc3Cl)c(=O)n(-c3ccc(Cl)cc3)c2C1` here?
**A.** inconclusive [inhibitor, single point]

**Q.** For `CC1CCN(S(=O)(=O)N2CCCC(C(=O)NCc3ccc(F)cc3)C2)CC1` (configuration not stated), which Potency is on record?
**A.** inconclusive [inhibitor, single point]

**Q.** With `CCCn1c(NCc2cccc(OC)c2O)nc2ccccc21` as the molecule, how does the Potency read?
**A.** inconclusive [inhibitor, partial curve]

**Q.** For `C=CCn1c(SCC(=O)NCc2ccco2)nnc1-c1cccc(N(C)C)c1`, which Potency is on record?
**A.** inconclusive [inhibitor, single point]

**Q.** Which Potency does the source give for `CCCC(c1nnnn1CC1CCCO1)N1CCN(c2cc(Cl)ccc2C)CC1` (configuration not stated) here?
**A.** inconclusive [inhibitor, single point]

**Q.** Which Potency does the source give for `CCc1nnc(NC(=O)CSc2ncnc3scc(-c4ccc(C)cc4)c23)s1` here?
**A.** inconclusive [inhibitor, single point]

**Q.** With `Cc1cc(C(=O)Nn2c(C3CCCCC3)nc3ccccc3c2=O)ccc1[N+](=O)[O-]` as the molecule, how does the Potency read?
**A.** inconclusive [inhibitor, single point]

**Q.** Which Potency does the source give for `CCN1CCN(CCCNC(=O)c2ccc(/C=C3/Sc4ccccc4N(Cc4ccccc4F)C3=O)cc2)CC1` here?
**A.** active: 14.6 µM

**Q.** With `CCN(CC)CCCOc1ccc(Cl)c(Cl)c1` as the molecule, how does the Potency read?
**A.** inconclusive [inhibitor, partial curve]

**Q.** With `CCOc1cc(Br)cc(/C=N/NC(=O)c2cccnc2)c1O` as the molecule, how does the Potency read?
**A.** active: 0.366 µM

**Q.** With `O=C(CSC1CC(=O)N(CC(c2ccccc2)c2ccccc2)C1=O)Nc1ccc(Cl)cc1` (configuration not stated) as the molecule, how does the Potency read?
**A.** inconclusive [inhibitor, single point]

**Q.** Which “activity change, negative = growth inhibition” value does the source give for `COc1ccc(C(C(=O)NC2CCCC2)N(CCO)C(=O)Cn2nnc(-c3ccc(C)o3)n2)cc1OC` (configuration not stated) here?
**A.** inactive: -3.52%

**Q.** Which “activity change, negative = growth inhibition” value does the source give for `O=C1CC(N(Cc2cccs2)C(=O)Nc2ccccc2)C(=O)N1c1ccc(Cl)cc1` (configuration not stated) here?
**A.** inactive: -27.4%

**Q.** For `Cc1cccc(NC(=O)CSc2nc(-c3ccco3)cc(C(F)(F)F)n2)c1C`, which Potency is on record?
**A.** active: 9.2 µM

**Q.** Which Potency does the source give for `CC(C)N1CCC(N2CCN(C/C=C/c3ccccc3)CC2CCO)CC1` (configuration not stated) here?
**A.** inconclusive [inhibitor, single point]

**Q.** Which “activity change, negative = growth inhibition” value does the source give for `COc1ccc(OC)c(CNS(=O)(=O)c2cc(-c3cc(C)no3)ccc2OC)c1` here?
**A.** inactive: -14.3%

**Q.** With `Cc1cccc(N2CCN(S(=O)(=O)c3csc(C(N)=O)c3)CC2)c1C` as the molecule, how does the Potency read?
**A.** active: 20.6 µM

**Q.** Which Potency does the source give for `COc1cc2c(cc1OC)CN(c1nc(CN3CCCCC3)nc3sc4c(c13)CCCC4)CC2` here?
**A.** inconclusive [inhibitor, single point]

**Q.** With `CC(=O)Nc1ccc(N(CC(O)Cn2c3ccccc3c3ccccc32)S(=O)(=O)c2ccc(C)cc2)cc1` (configuration not stated) as the molecule, how does the Potency read?
**A.** inconclusive [inhibitor, partial curve, poor fit]

**Q.** With `COc1cccc(NS(=O)(=O)c2ccc3c(c2)CCCN3C(C)=O)c1` as the molecule, how does the Potency read?
**A.** inconclusive [inhibitor, single point]

**Q.** Which “activity change, negative = growth inhibition” value does the source give for `O=C(O)[C@H]1CCCC[C@H]1C(=O)Nc1ccc(S(=O)(=O)N2CCOCC2)cc1` here?
**A.** inactive: 12.2%

**Q.** With `CN(C)C(=O)c1ccc(NC(=O)COC(=O)c2cc(S(=O)(=O)N(C)C)ccc2N2CCCC2)cc1` as the molecule, how does the activity change, negative = growth inhibition read?
**A.** inconclusive: -36.2% [inhibitor]

**Q.** With `CC(C)CCNC(=O)CCc1nnc2n(CCCOC(C)C)c(=O)c3ccccc3n12` as the molecule, how does the Potency read?
**A.** inconclusive [inhibitor, single point]

**Q.** Which Potency does the source give for `CSc1nc(Sc2ccccc2Cl)c2ccccc2n1` here?
**A.** inconclusive [inhibitor, single point]

**Q.** For `COc1cc2[nH]c(Cl)c([N+](=O)[O-])c2cc1OC`, which Potency is on record?
**A.** active: 20.6 µM

**Q.** With `O=C1C=C(c2ccc(Cl)c(C(F)(F)F)c2)C[C@@H](c2ccc(F)cc2)C1` as the molecule, how does the Potency read?
**A.** inconclusive [inhibitor, single point]

**Q.** Which Potency does the source give for `CC(=O)c1c(C)oc2ccc(N(C(C)=O)S(=O)(=O)c3ccc(Br)cc3)cc12` here?
**A.** inconclusive [inhibitor, single point]

**Q.** Which “activity change, negative = growth inhibition” value does the source give for `O=S(=O)(c1ccc(NCc2ccccc2)cc1)N1CCOCC1` here?
**A.** inactive: -20.7%

**Q.** For `O=C(NC1CCCCCC1)c1c(F)c(F)c(F)c(F)c1F`, which “activity change, negative = growth inhibition” value is on record?
**A.** inactive: -13.7%

**Q.** For `COc1ccc(C(=O)NCCn2ccc3ccccc32)cc1OC`, which Potency is on record?
**A.** inconclusive [inhibitor, partial curve]

**Q.** For `COc1ccc(NC(=O)COC(=O)c2ccc(OCc3c(C)noc3C)cc2)cc1OC`, which Potency is on record?
**A.** inconclusive [inhibitor, single point]

**Q.** Which Potency does the source give for `COc1ccc(S(=O)(=O)N2C[C@H]3CON(C)[C@H]3C[C@H]2c2cccc(Br)c2)cc1` here?
**A.** inconclusive [inhibitor, partial curve]

**Q.** With `COc1ccc(C2C(C(=O)OCC3CCCO3)=C(C)NC3=C2C(=O)CC(c2ccco2)C3)cc1O` (configuration not stated) as the molecule, how does the Potency read?
**A.** inconclusive [inhibitor, single point]

**Q.** With `O=C(Nc1nnc2n1CCS2)c1ccc(F)cc1F` as the molecule, how does the Potency read?
**A.** inconclusive [inhibitor, single point]

**Q.** With `CCCS(=O)(=O)NC(=O)C1(C)CCCN(C(=O)c2cccs2)C1` (configuration not stated) as the molecule, how does the “activity change, negative = growth inhibition” value read?
**A.** inactive: 1.68%

**Q.** Which “activity change, negative = growth inhibition” value does the source give for `CC(=O)c1ccc(NC(=O)Cn2c(=O)oc3ccccc32)cc1` here?
**A.** inactive: -10.3%

**Q.** Which Potency does the source give for `COCCN1CN=C(Nc2nc3ccccc3s2)NC1` here?
**A.** inconclusive [inhibitor, single point]

**Q.** With `N#Cc1cc2ccncc2c2ccccc12` as the molecule, how does the Potency read?
**A.** active: 8.2 µM
